# Experimental data as given in PubChem BioAssay AID488969 (Vanderbilt High Throughput Screening Facility, 2010).
# In all, about 110,000 compounds were measured (“z-score”: median about -0.1, highest 2% from about 2 on). The list shows a part of the results.
# Target: Metabotropic glutamate receptor 8 (Rattus norvegicus) (UniProt P70579)
# Assay: mGluR8 Gi/Go-coupled signaling modulation – cell-based, rat, thallium flux, HTS, primary screen (AID 488969)
# Conditions: HEK293 rat mGluR8, GIRK (G protein-gated inwardly rectifying potassium channel) thallium flux, FluoZin2; at 10 µM; stronger effect = higher value; submaximal glutamate (EC20) added with thallium
# Sequence of UniProt P70579 (P70579 whole entry, looked up): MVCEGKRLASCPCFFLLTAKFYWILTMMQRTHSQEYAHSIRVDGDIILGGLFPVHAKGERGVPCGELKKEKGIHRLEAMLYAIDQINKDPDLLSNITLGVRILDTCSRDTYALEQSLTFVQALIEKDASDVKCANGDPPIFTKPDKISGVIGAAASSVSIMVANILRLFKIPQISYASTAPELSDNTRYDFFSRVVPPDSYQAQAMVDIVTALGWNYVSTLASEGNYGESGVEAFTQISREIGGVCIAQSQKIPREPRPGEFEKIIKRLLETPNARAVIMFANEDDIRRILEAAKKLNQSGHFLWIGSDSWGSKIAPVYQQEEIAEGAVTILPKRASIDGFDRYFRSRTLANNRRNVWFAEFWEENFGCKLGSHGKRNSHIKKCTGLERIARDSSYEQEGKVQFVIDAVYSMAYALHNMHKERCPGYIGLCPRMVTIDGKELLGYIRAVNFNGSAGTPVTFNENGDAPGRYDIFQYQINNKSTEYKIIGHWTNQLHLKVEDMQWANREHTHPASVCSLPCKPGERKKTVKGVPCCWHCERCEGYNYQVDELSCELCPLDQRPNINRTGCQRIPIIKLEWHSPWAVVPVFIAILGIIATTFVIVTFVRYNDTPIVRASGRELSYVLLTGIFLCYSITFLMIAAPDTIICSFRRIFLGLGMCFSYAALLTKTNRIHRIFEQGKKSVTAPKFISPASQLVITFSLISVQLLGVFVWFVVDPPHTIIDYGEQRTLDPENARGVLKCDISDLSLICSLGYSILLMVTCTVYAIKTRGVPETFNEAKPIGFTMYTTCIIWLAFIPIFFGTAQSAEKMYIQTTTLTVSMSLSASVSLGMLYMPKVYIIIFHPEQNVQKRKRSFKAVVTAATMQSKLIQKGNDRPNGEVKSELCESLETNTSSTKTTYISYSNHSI
row,Structure (SMILES),z-score
1,Cn1cccc1/C=N/NC(=O)c1cccnc1,0.491
2,CNS(=O)(=O)c1ccc(N2CCCC2=O)c([N+](=O)[O-])c1,-0.177
3,O=C(Nc1cccn2ncnc12)C(Cl)Cl,-0.39
4,COC(=O)c1c(NC(=O)CN2C(=O)NC(CCc3ccccc3)C2=O)sc2c1CCCCC2 (configuration not stated),-0.482
5,O=C(OCC1CCCN2CCCCC12)c1ccc2c(c1)OCO2 (configuration not stated),0.442
6,Cc1ccc(NS(=O)(=O)c2cc(C(N)=O)ccc2C)cc1,0.305
7,CSc1ncc(Cl)c(C(=O)Nc2cccc3ccccc23)n1,-0.314
8,C=CCSc1nnc(NC(=O)COc2ccc3ccccc3c2)s1,-0.306
9,O=C(Nc1cccc(Cl)c1)N(CCN1CCOCC1)Cc1cccc(Cl)c1,-0.473
10,CCOc1ccc(OCc2cccc(C(=O)Nc3ccc(CN4CCCCC4)cc3)c2)cc1,0.145
11,CC(=O)c1cccc(NC(=O)CSc2nnc(-c3cccnc3)o2)c1,0.059
12,Cc1ccc(S(=O)(=O)c2c(C(=O)c3ccccc3)cnc3cc4c(cc23)OCCO4)cc1,0.383
13,Cc1ccc(S(=O)(=O)NC2=NCCCCC2)cc1,-0.00378
14,COC(=O)Nc1ccc(C)c(NC(=O)OC)c1,-0.0565
15,CC(C)c1ccc(NC(=O)CCNS(=O)(=O)c2cccc3nonc23)cc1,0.647
16,COC(=O)CC/C(O)=C1\C(=O)CC(C)(C)CC1=Nc1ccccc1OC,-2.11

row,Structure (SMILES),z-score
1,CCCC(=O)Nc1ccc(N2CCN(C(=O)c3ccccc3C)CC2)cc1,0.0557
2,CCn1c(SC(C)C)nnc1-c1c[nH]c2ccccc12,0.318
3,Cc1cc(C(C)(C)C)cc(S(=O)(=O)NCC(=O)O)c1C,-0.242
4,Nc1ccc(-c2nc3ccc(N)cc3o2)cc1,-0.187
5,Cc1nn(Cc2ccccc2)c(C)c1NC(=O)CSc1nc2sc3c(c2c(=O)n1C)CCC3,-2.27
6,COC(=O)c1ccc(CSc2ncnc3ccccc23)o1,-0.436
7,Cc1cc(C)nc(SCNC(=O)c2ccc(Cl)cc2)n1,-0.0711
8,COc1ccc(S(=O)(=O)N2CCC(C(N)=O)(N3CCCCC3)CC2)cc1,-0.324
9,O=C(/C=C/c1ccc([N+](=O)[O-])cc1)NCc1cccs1,-0.0179
10,O=C(NCc1cccnc1)c1ccccn1,0.228
11,CCOC(=O)c1ccccc1NC(=O)Cn1cnc2c(oc3ccccc32)c1=O,0.284
12,CCOc1ccc(N(CCC#N)S(=O)(=O)c2ccc(OC)cc2)cc1,-0.294
13,O=C(CSc1nc(-c2ccccc2)cs1)Nc1cccc([N+](=O)[O-])c1,-0.251
14,Cc1nn(C(C)CC(=O)O)c(C)c1Br (configuration not stated),-0.495
15,COc1ccc(NC(=O)Nc2nc3c(s2)CCCC3)cc1,-0.842
16,O=C(O)Cn1cc(C(=O)C2CC2)c2ccccc21,-0.0301
